According to PubChem BioAssay AID493208 (National Center for Advancing Translational Sciences (NCATS), 2011):
Screen size: about 44,000 compounds; about 340 (0.77%) were called active. About 5% were inconclusive and are not listed. Calls come from the whole dose curve; as a rule, active = well fitted inhibition curve with a large enough effect; inconclusive = small, poorly fitted or top-dose-only effect; inactive = flat fitted curve, though single readings scatter. The list shows a part of the results.

test: Acumen qHTS Assay for Inhibitors of the mTORC1 Signaling Pathway in MEF (Tsc2-/-, p53-/-) Cells: Sytravon; details: phospho-rpS6 immunofluorescence/PI, 24 h; series mostly up to 38.3 µM; activity change, negative = inhibition: at the top concentration;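 note: plate controls were DMSO for no effect and rapamycin for full effect; nearly all actives have a fitted effect of over 50% in size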
How it was run: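 Readout is phospho-S6 Alexa 488 signal normalized to PI per well, reported as % active cells with thresholds set from rapamycin (7.5 nM) and DMSO controls. Cells: Tsc2-/-, p53-/- MEFs, 24 hrs compound at 37 C; PI cell number serves as viability.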

Activity change, negative = inhibition, inactive:
Cc1ccc(-c2c(C)n3c4c(=O)n(C)c(=O)n(C)c4nc3n2CCCO)cc1 -4.55%
O=C(CCn1cnnn1)Nc1ccccc1 -4.59%
O=C(CSc1nc2c([nH]c3ccccc32)c(=O)n1-c1ccccc1)Nc1ccccc1F -13.7%
CCOC(=O)c1ccccc1NC(=O)Cn1c(=O)n(Cc2ccc(C(=O)NCc3ccc4c(c3)OCO4)cc2)c(=O)c2ccccc21 -0.447%
COc1ccc(C(=O)Nc2cccc(-c3nc4cccnc4s3)c2C)c(OC)c1 -15.5%
CC(=O)N1c2c(cc(Br)cc2S(=O)(=O)Nc2ccccc2C)CC1C (stereo unspecified) -1.33%
Cc1cccc(C(=O)NC(=O)Nc2ccc(-n3nc(C(F)(F)F)cc3C(F)(F)F)cc2)c1 -3.83%
Cc1c2cnn(CC(=O)NCc3ccc(F)cc3)c(=O)c2c(C)n1Cc1ccccc1Cl -6.99%
COc1ccc(-c2nc(C)c(CCNC(=O)c3ccccc3Br)s2)cc1OC -1.03%
COc1cccc(Cn2cnc3c2c(=O)n(C)c(=O)n3C)c1 -1.03%
O=C(Nc1cccc(C(F)(F)F)c1)c1ccc(F)c(S(=O)(=O)N2CCc3ccccc3C2)c1 3.11%
COCCCNC(=O)C1CCN(c2ncnc3c2nc2n3CCCCC2)CC1 5.33%
CCOc1cc(Br)c(C2C(C(=O)OC)=C(C)NC3=C2C(=O)c2ccccc23)cc1OCC (stereo unspecified) -6.7%
CC(=O)N1CCCc2cc(S(=O)(=O)N3CCC(N(C)C(C)C)CC3)ccc21 0.293%
Cc1nc2c(C(=O)NCCC(C)C)cnn2c(C)c1Cc1c(F)cccc1Cl 1.99%
COc1ccc2c(c1)c1c(c(=O)n(-c3ccc(C)cc3)c(=O)n1CC(=O)Nc1cc(C)ccc1C)n2C -11.2%
CCC(C)NC(=O)C1CCN(S(=O)(=O)c2ccc3c(ccn3CC)c2)CC1 (stereo unspecified) 1.22%
COc1cccc2sc(N(Cc3cccnc3)C(=O)c3ccc(S(=O)(=O)N(C)C)cc3)nc12 -0.117%
O=C(O)c1ccccc1NC(=O)N1c2ccccc2Sc2ccccc21 9.11%
CCOC(=O)C1CCCN(C(=O)C2CCN(S(=O)(=O)c3c(C)noc3/C=C/c3ccc(C)cc3)CC2)C1 (stereo unspecified) -2.5%
COc1ccccc1CNC(=O)c1cc2cc(S(=O)(=O)N3CCCCC3)ccc2n1C -1.98%
CC1CCCN(Cc2c(O)ccc3c(=O)c(-c4ccc(Cl)cc4)c(C(F)(F)F)oc23)C1 (stereo unspecified) -0.0856%
COc1cc2c(cc1OC)C(c1cc(OC)c(O)c(OC)c1)CC(=O)N2 (stereo unspecified) 14.9%
Cc1cc(C)cc(N2C(=O)CS(=O)(=O)C23C(=O)N(Cc2ccccc2)c2ccccc23)c1 (stereo unspecified) -8.51%
Cc1cc(OCC(=O)Nc2ncn[nH]2)c(C)c(C)c1Br -2.06%
COc1ccc(-c2cc(C(F)(F)F)nc(SCC(=O)Nc3ccc(C(C)=O)cc3)n2)cc1 -4.45%
